Measurements from article PMC4336329 (PLoS ONE, 2015).
Among all 310,000 compounds or so, about 14,000 (4.5%) showed an effect of 50% or more. Effects have a minus sign here. This is one part of the list.

These molecules were tested against human ether-à-go-go-related gene (hERG) potassium channel (human, UniProt Q12809) (assay: primary screen, population patch clamp on CHO cells stably expressing hERG).
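Further: peak tail current of the secondary pulse compared with the same well before compound.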

Chain of human ether-à-go-go-related gene (hERG) potassium channel (Q12809 whole entry, looked up): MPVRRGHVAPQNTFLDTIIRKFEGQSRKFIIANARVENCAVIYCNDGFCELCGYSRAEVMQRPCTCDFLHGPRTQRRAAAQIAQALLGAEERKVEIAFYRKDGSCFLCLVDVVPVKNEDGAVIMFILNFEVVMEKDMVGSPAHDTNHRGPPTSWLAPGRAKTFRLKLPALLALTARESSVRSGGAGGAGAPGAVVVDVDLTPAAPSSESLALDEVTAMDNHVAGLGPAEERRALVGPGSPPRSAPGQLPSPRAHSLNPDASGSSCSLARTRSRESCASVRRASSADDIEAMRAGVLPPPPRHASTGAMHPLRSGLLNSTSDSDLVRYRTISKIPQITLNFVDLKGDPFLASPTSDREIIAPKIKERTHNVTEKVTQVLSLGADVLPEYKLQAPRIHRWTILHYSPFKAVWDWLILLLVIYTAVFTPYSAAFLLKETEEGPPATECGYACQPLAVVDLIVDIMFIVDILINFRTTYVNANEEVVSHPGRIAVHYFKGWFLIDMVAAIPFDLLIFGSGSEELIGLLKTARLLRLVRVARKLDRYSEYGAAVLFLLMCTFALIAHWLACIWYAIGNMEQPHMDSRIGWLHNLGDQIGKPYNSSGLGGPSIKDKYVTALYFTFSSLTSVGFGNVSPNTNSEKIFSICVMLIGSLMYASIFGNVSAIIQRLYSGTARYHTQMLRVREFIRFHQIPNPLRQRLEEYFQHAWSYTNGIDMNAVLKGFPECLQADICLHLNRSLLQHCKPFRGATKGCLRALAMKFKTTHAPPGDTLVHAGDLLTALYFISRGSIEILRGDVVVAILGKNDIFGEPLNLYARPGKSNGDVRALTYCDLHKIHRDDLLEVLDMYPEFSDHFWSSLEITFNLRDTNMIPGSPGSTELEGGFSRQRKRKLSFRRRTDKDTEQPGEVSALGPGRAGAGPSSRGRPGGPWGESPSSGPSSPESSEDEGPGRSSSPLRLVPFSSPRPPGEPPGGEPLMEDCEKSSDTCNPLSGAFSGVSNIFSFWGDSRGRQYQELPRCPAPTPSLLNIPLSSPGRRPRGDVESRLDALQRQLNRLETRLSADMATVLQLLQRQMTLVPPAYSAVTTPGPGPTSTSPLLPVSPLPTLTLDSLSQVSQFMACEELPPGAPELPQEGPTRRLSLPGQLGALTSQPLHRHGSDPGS

Structure (SMILES) | hERG current change (%, negative = inhibition) at 10uM
COc1ccc(C2c3c(-c4ccccc4)n[nH]c3C(=O)N2c2ccc(C(=O)O)cc2)cc1 (stereo not shown) | 8.05%
C=CC(C)N1C(=O)S/C(=C\c2ccc(N3CCOCC3)cc2C)C1=O (stereo not shown) | -0.998%
Cc1cccnc1Nc1nc(-c2ccccc2)cs1 | 11.3%
COc1cc(OC)cc(C(=O)Nc2ncc3c(n2)CC(C)(C)CC3=O)c1 | -6.84%
Cc1ccc(NCCCCO)cc1C | 15.4%
CC(=O)c1cc(CC(=O)N2CCc3c([nH]c4ccccc34)C2c2ccccn2)cs1 (stereo not shown) | -34.8%
CCOc1ccc(CCNS(=O)(=O)c2ccc(-c3ccc(=O)[nH]n3)o2)cc1OCC | -7.29%
CCNc1ccc(S(=O)(=O)N2CCCCC2)cn1 | 5.02%
COCCNC(=O)CN(c1cc(Cl)ccc1OC)S(=O)(=O)c1ccc(C)c([N+](=O)[O-])c1 | 3.25%
COc1cccc(-c2nc(-c3ccc(NC(=O)c4cccnc4)cc3)no2)c1 | 0.251%
O=S(=O)(c1ccccc1F)N1CCN(Cc2cc3c(cc2O)OCO3)CC1 | -11.8%
CN(C)S(=O)(=O)c1cc(NC(=O)c2cc(=O)[nH]c3ccccc23)ccc1Cl | 14.9%
NS(=O)(=O)c1ccc(NC(=O)c2ccc(Cl)c(S(=O)(=O)NCc3ccco3)c2)cc1 | 3.38%
O=C(C1=C[C@H](c2ccc3c(c2)OCO3)C[C@H](OCCCCO)O1)N1CCOCC1 | -1.14%
CC(Oc1ccc2c3c(c(=O)oc2c1)CCCC3)C(=O)NCC(O)c1ccccc1 (stereo not shown) | 16.8%
Cc1ccc(C(c2nnnn2C(C)(C)C)N(Cc2ccco2)Cc2cccs2)cc1 (stereo not shown) | 16%
CCC(=O)/C=C1/Sc2ccc(OC)cc2N1CCO | 17.9%
Cc1cc(C)c(S(=O)(=O)Nc2nnc(C(C)C)s2)c(C)c1 | 20.9%
N=C1SC(CC(=O)Nc2ccccc2[N+](=O)[O-])C(=O)N1c1ccccc1 (stereo not shown) | 20.7%
N#Cc1cc2[nH]c3ccccc3c2[n+](-c2ccc([N+](=O)[O-])cc2)c1N.[Cl-] | -65.1%
CC(=O)c1sc(-c2ccc(F)cc2)cc1NS(=O)(=O)c1ccccc1 | 4.92%
CC1=CC(C#N)(C#N)C(C#N)(C#N)C(c2ccccc2)N1 (stereo not shown) | 19.2%
COc1ccc(CN(C(=O)c2cccs2)c2ccccc2)cc1 | 0.428%
[O-][n+]1c2c(nn1-c1ccccc1)/C(=N/O)CCC2 | -8.05%
CCCN1CN(Cc2ccccc2)CC2=C1CC(C)(C)CC2=O.Cl | -0.494%
Cc1c(C(=O)N(C)C(C)c2ccccn2)oc2c(F)cccc12 (stereo not shown) | 3.08%
COC(=O)c1c(C(=O)OC)c(-c2ccc(Cl)c(Cl)c2)n2c1CCC2 | 6.14%
O=C(CSc1nc2ccccc2c(=O)n1-c1ccccc1)N1CCc2ccccc21 | 2.15%
